From PubChem BioAssay AID938 (National Center for Advancing Translational Sciences (NCATS), 2007)
Among all 73,000 compounds or so, about 1,800 (2.5%) were called active. Inconclusive means that the source gave no clear call. Such entries were picked first, then a sample of the others. Calls come from the whole dose curve; as a rule, active = well fitted activation curve with a large enough effect; inconclusive = small, poorly fitted or top-dose-only effect; inactive = no such curve, though single readings can be large or run the other way. Potencies of inconclusive entries are left out as doubtful fits.

Assay: qHTS Assay for Agonists of the Thyroid Stimulating Hormone Receptor: Activators of Intracellular cAMP Concentrations in Parental HEK 293; note: nearly all actives have a fitted effect of over 55% in size; for activation: % of control where 0% means no effect
Conditions: parental HEK293 CNG cAMP sensor, membrane potential fluorescence; activation: at 57.1 µM (top of the series) unless noted
In short: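 Counterscreen for endogenous-receptor signalling: CNG-channel HEK 293 cells report cAMP rise by membrane depolarization. After 60 min dye equilibration with 100 uM RO 20-1724, compounds incubated 30 min before bottom-read fluorescence at 590 nm.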
Potency is the fitted concentration of half-maximal effect; tags give direction and shape of the fitted curve.

With `Cc1ccccc1Cn1c(-c2cncs2)nc2ccccc21` as the molecule, how does the Potency read?
Its Potency is active: 31.6 µM.

For `Cc1noc(C)c1C(=O)N1CCC[C@@]2(CCN(C(=O)Nc3cccc(F)c3)C2)C1`, which Potency is on record?
The Potency was “inactive”.

Which Potency does the source give for `CCn1c(COc2ccccc2C)nnc1SCC(=O)OC` here?
The Potency was inconclusive [activator, single point].

For `CS(=O)(=O)N(CC(=O)O)Cc1ccccc1`, which activation is on record?
The activation was inactive: 3.3% [at 11.4 µM].

With `O=C(O)c1cccc(S(=O)(=O)Nc2ccc3oc(=O)sc3c2)c1` as the molecule, how does the Potency read?
Its Potency is inconclusive [activator, single point].

For `CCOc1ccc2nc(NC(=O)C(NS(=O)(=O)c3cccs3)C(C)C)sc2c1` (configuration not stated), which Potency is on record?
The Potency was “inactive”.

With `c1ccc(CN2CCN(c3nc(-c4ccccc4)nc(-n4ccnc4)n3)CC2)cc1` as the molecule, how does the Potency read?
The Potency was inconclusive [activator, partial curve].

For `COc1ccc(Oc2ncc3nc(-c4cn(C)c5ccccc45)c(=O)n(CCC#N)c3n2)cc1`, which Potency is on record?
Its Potency is “inactive”.

With `COc1ccccc1CN1C(=O)CN(C2CCCC2)C(=O)C1c1ccc(F)cc1` (configuration not stated) as the molecule, how does the Potency read?
The Potency was inconclusive [activator, single point].

For `CCOC(=O)C1=C(C)NC(=O)N[C@@H]1c1coc2cc(C)cc(C)c2c1=O`, which activation is on record?
The activation was inactive: -0.34% [at 11.4 µM].

For `COC(=O)c1ccccc1NC(=O)CN(C)S(=O)(=O)c1cc(C)ccc1OC`, which Potency is on record?
Its Potency is inconclusive [activator, single point].

Which Potency does the source give for `O=C(COC(=O)c1ccccc1Oc1ccccc1)NC1CCS(=O)(=O)C1` (configuration not stated) here?
The Potency was inconclusive [activator, single point].

With `Cc1cc(C(=O)COc2ccc3ccc(=O)oc3c2)c(C)n1Cc1cccs1` as the molecule, how does the Potency read?
Its Potency is inconclusive [activator, single point].

For `CCCCOC(=O)Nc1cc(OC)c(Cl)cc1OC`, which Potency is on record?
The Potency was inconclusive [activator, partial curve].

With `CCOC(=O)c1c(-c2cccs2)csc1NC(=O)CN1CCOCC1` as the molecule, how does the Potency read?
Its Potency is inconclusive [activator, single point].

With `Cc1ccc2cc(C(c3nnnn3C3CCCC3)N3CCOCC3)c(=O)[nH]c2c1C` (configuration not stated) as the molecule, how does the Potency read?
Its Potency is inconclusive [activator, single point].

With `Nc1nc(CN2CCN(c3ccccc3F)CC2)nc(Nc2ccccc2)n1` as the molecule, how does the Potency read?
Its Potency is “inactive”.

Which Potency does the source give for `CCOc1cc(NC(=O)c2cnccn2)c(OCC)cc1NC(=O)c1ccc(OC)cc1` here?
The Potency was “inactive”.

Which Potency does the source give for `O=C(Nc1cccc(C(F)(F)F)c1)C1CCCN(c2ncccn2)C1` (configuration not stated) here?
The Potency was active: 25.1 µM.

For `Cc1cc(N)c(-n2cc3c(=O)n(C)c(=O)n(C)c3c2)cc1C`, which Potency is on record?
Its Potency is “inactive”.

Which Potency does the source give for `FC(F)(F)c1ccc(N2CCN(c3cc(-c4ccccc4)nc4ncnn34)CC2)nc1` here?
The Potency was active: 15.8 µM.

With `COc1cccc(OC)c1OCCNCCO` as the molecule, how does the Potency read?
The Potency was inconclusive [activator, partial curve].

With `O=C1c2ccccc2C(=O)N1Cc1nc(-c2ccncc2)no1` as the molecule, how does the Potency read?
The Potency was “inactive”.

For `[O-]/[N+](=C/c1ccc(F)cc1)c1ccccc1`, which Potency is on record?
The Potency was inconclusive [activator, partial curve].

Which Potency does the source give for `O=C(Nc1ccccc1)N1CC2(CCN(S(=O)(=O)c3ccccc3)CC2)C1` here?
The Potency was “inactive”.

With `FC(F)(F)c1cc(-c2ccco2)nc(NCc2ccco2)n1` as the molecule, how does the Potency read?
The Potency was inconclusive [activator, partial curve].

Which Potency does the source give for `Cc1nn(-c2nc3ccccc3s2)c(N)c1-c1ccc(Cl)cc1` here?
Its Potency is “inactive”.

For `Clc1ccc(OCc2nc(-c3ccncc3)no2)c(Br)c1`, which Potency is on record?
Its Potency is inconclusive [activator, single point].

For `CS(=O)(=O)N1CCC[C@@]2(CCN(Cc3nccs3)C2)C1`, which Potency is on record?
Its Potency is inconclusive [activator, single point].

Which Potency does the source give for `Clc1ccc(OCc2nnc(-c3ccccc3Br)o2)c(Cl)c1` here?
Its Potency is inconclusive [activator, partial curve].

Which Potency does the source give for `Cc1cc(NC(=O)Cn2nc(C(F)(F)F)c3c2CCC3)n(-c2ccccc2)n1` here?
Its Potency is inconclusive [activator, partial curve].

Which activation does the source give for `CC(C)[C@@H](OCc1ccccc1)[C@H](C)/C=N\O[C@@H](C)c1cn([C@@H]2COC[C@@H]2O)nn1` here?
The activation was inactive: 0.396% [at 11.4 µM].

For `CCCCOC(=O)NCN1C(=O)C2C3C=CC(C3)C2C1=O` (configuration not stated), which Potency is on record?
Its Potency is “inactive”.

With `O=C(NCCCN1CCCC1=O)c1cccnc1` as the molecule, how does the Potency read?
Its Potency is inconclusive [activator, single point].

With `O=C(OCC(F)(F)C(F)F)c1ccccc1C(=O)Oc1ccc(F)cc1F` as the molecule, how does the Potency read?
Its Potency is inconclusive [activator, single point].

For `COC(=O)c1cc2sc(Cl)cc2n1CC(=O)Nc1cccc(SC)c1`, which Potency is on record?
Its Potency is inconclusive [activator, partial curve].

With `COCCOC(=O)C1=C(C)N=C2SCCC(=O)N2C1c1cc(Br)ccc1OC` (configuration not stated) as the molecule, how does the Potency read?
The Potency was “inactive”.

Which Potency does the source give for `CCOC(=O)C(C)Sc1nc2ccccc2c(=O)n1CC` (configuration not stated) here?
The Potency was inconclusive [activator, partial curve].

For `CCOC(=O)C1(Cc2ccc(O)cc2)NC(c2ccccc2F)C2C(=O)N(C)C(=O)C21` (configuration not stated), which Potency is on record?
The Potency was inconclusive [activator, single point].

For `COc1cccc(Cn2c(=O)c(-c3ccccc3)nc3cncnc32)c1`, which Potency is on record?
The Potency was “inactive”.

Which Potency does the source give for `Cc1cc(N2CCCCC2)nc(SCC(=O)c2ccccc2)n1` here?
The Potency was inconclusive [activator, partial curve].

For `Cc1c(C(=O)NCc2cccnc2)sc2nc(-c3ccc(F)cc3)cn12`, which Potency is on record?
Its Potency is “inactive”.

Which Potency does the source give for `Cc1cc(NC(=O)COC(=O)COc2cccc3c2OC(C)(C)C3)no1` here?
The Potency was inconclusive [activator, single point].

Which Potency does the source give for `CC(=O)N1[C@H](C)C=C[C@]1(Cc1ccccc1)C(=O)NCCN1CCOCC1` here?
Its Potency is inconclusive [activator, single point].

For `COc1ccc(C(c2sc3ncnn3c2O)N2CCN(c3ccccc3F)CC2)cc1OC` (configuration not stated), which Potency is on record?
The Potency was “inactive”.

With `COc1ccccc1N=C1SC(C)CN1C(=O)C1CCC1` (configuration not stated) as the molecule, how does the Potency read?
The Potency was inconclusive [activator, partial curve].

With `CCCC(C(=O)NC1CCCC1)N(CC1CCCO1)C(=O)c1snc(C(N)=O)c1N` (configuration not stated) as the molecule, how does the Potency read?
Its Potency is inconclusive [activator, single point].
